Here are results for 50 compounds from paper PMC6919601, “Identification of Plasmodium dipeptidyl aminopeptidase allosteric inhibitors by high throughput screening” (PLoS ONE, 2019).

Each structure is given as a SMILES string. Screen size: about 110,000 compounds; about 230 (0.21%) showed an effect of 50% or more. Some of the results follow.
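Further: 30 min substrate incubation versus DMSO and 10 µM JCP410 controls.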

Chain of DPAP1 (Q8IIJ9 whole entry, looked up): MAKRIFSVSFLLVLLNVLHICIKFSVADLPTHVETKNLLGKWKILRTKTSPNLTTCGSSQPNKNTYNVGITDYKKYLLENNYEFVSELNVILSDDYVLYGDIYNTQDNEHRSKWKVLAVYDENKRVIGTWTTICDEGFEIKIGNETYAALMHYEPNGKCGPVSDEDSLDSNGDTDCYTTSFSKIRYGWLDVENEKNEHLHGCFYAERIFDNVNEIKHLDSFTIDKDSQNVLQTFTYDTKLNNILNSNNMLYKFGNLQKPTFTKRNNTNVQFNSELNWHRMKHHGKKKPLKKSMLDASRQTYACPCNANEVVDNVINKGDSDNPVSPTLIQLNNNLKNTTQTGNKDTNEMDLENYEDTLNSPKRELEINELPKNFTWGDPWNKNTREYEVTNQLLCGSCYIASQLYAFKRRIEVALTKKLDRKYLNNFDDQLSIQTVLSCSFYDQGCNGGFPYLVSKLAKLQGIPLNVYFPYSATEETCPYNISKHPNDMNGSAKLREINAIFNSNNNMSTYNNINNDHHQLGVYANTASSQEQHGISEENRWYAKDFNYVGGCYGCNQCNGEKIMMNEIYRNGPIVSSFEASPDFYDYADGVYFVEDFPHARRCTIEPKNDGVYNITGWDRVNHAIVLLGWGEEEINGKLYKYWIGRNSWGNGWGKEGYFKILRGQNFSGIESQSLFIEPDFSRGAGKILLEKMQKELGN

The test concerns the target DPAP1 (Plasmodium falciparum, UniProt Q8IIJ9). The test can be described thus: primary screen, percent inhibition; read by cleavage of a fluorogenic dipeptide substrate; higher = more effect of the substance. Details: species or system P. falciparum D10 trophozoite lysates; single well.
Regarding `Cc1nnc2n1NC(c1ccc(Cl)cc1)C(C(=O)NCc1ccco1)S2` (centres unmarked), the “% Inhibition @ 10 uM” value was 1.72%.

For the compound `Cc1nn(CCCC(=O)NC(C)c2ccccc2)c(=O)c2c1sc1ccccc12` (centres unmarked), the “% Inhibition @ 10 uM” value is listed as -3.43%.

As to `CO/C(O)=C1/C(C)=NC2=C(C(=O)CCC2)C1c1ccccc1` (centres unmarked), the “% Inhibition @ 10 uM” value turned out to be 5.01%.

On to `COc1ccccc1C1N(c2cc(C)on2)C(=O)C2CCCN21` (centres unmarked), for which the “% Inhibition @ 10 uM” value is -0.499%.

Consider `NS(=O)(=O)c1ccc(NC(=O)CN2C(=O)c3cccc4cccc(c34)C2=O)cc1`, for which the “% Inhibition @ 10 uM” value turned out to be 5.97%.

As to `CC(C)(C)c1ccc(C(=O)N2CCC3(CC2)N=C(c2ccccc2)C(=O)N3)cc1`, the “% Inhibition @ 10 uM” value is recorded as -0.808%.

With `Cc1ccc2nc(NC(=O)C3CC3c3ccccc3)sc2c1` (centres unmarked), the “% Inhibition @ 10 uM” value is 1.67%.

As for `COCCNC(=O)c1sc2ncn(CC(=O)N3CCC(C)CC3)c(=O)c2c1C`, the “% Inhibition @ 10 uM” value was -2.17%.

Turning to `CSc1nc2sc3c(c2c(=O)n1C)CCCC3`, the “% Inhibition @ 10 uM” value is given as -0.267%.

On to `COc1ccc(OC)c(CCNC(=O)CSc2nnc(C)c3c(C)n(-c4ccccc4)nc23)c1`, for which the “% Inhibition @ 10 uM” value is on record as -5.71%.

Take `COc1ccc(N/C=C(/C#N)c2nc(-c3ccc(-c4ccccc4)cc3)cs2)cc1`: the “% Inhibition @ 10 uM” value was 0.62%.

On to `CC1CCCCN1C(=O)c1ccc(COc2ccccc2Br)cc1` (centres unmarked), for which the “% Inhibition @ 10 uM” value was 3.72%.

In the case of `CC1=C(C(=O)Nc2ccccc2)C2(CCCCC2)C(C#N)=C(SCC(N)=O)N1`, the “% Inhibition @ 10 uM” value amounted to 12.6%.

Consider `CC(C)C[C@H](NC(=O)C1CCNCC1)C(=O)N[C@@H](CCc1ccccc1)C(=O)COc1ccccc1`, for which the “% Inhibition @ 10 uM” value turned out to be 2.04%.

Turning to `CC(C)NC(=O)CSCc1csc2c1CCCC2`, the “% Inhibition @ 10 uM” value was -2.15%.

Turning to `O/N=C/C(=N/O)c1ccc(Br)cc1`, the “% Inhibition @ 10 uM” value was -1.69%.

Consider `COc1cc(C)cc2oc(=O)c(CC(=O)NCc3ccc(Cl)cc3)c(C)c12`, for which the “% Inhibition @ 10 uM” value is on record as -2.57%.

Consider `Cc1nc(C)c(C(=O)NCCc2nc3ccccc3[nH]2)s1`, for which the “% Inhibition @ 10 uM” value came to 2.41%.

`O=C(O)CNCCC(O)c1ccccc1` (centres unmarked): the “% Inhibition @ 10 uM” value is -3.96%.

For the compound `COc1ccc(S(=O)(=O)Nc2ccccc2NS(=O)(=O)c2ccc(OC)cc2)cc1`, the “% Inhibition @ 10 uM” value is on record as -5.37%.

As to `O=C(Nc1nc2ccccc2s1)c1cc2ccc3cccnc3c2[nH]1`, the “% Inhibition @ 10 uM” value is -3.28%.

`CC(C)=CCC/C(C)=C/CN1CCCC(C(N)=O)C1` (centres unmarked): the “% Inhibition @ 10 uM” value was determined as 1.38%.

For `Cc1cccc(NC(=O)COc2ccc(C(C)C)cc2)c1`, the “% Inhibition @ 10 uM” value was found to be 2.59%.

In the case of `Cn1c(=O)c2c3c(sc2n2c(SCC(=O)c4ccc(Br)cc4)nnc12)CCC3`, the “% Inhibition @ 10 uM” value is -0.178%.

As to `COc1ccc2c(c1)OC/C(=C\c1ccc(C)cc1)C2=O`, the “% Inhibition @ 10 uM” value is listed as 5.55%.

As for `CCOc1ccc(/C=C2N=C(/C=C/c3ccc(Cl)cc3)OC/2=O)cc1`, the “% Inhibition @ 10 uM” value was determined as 1.61%.

`c1ccc(Nc2nc3ccccc3c3ccccc23)cc1`: the “% Inhibition @ 10 uM” value is reported as -0.856%.

For `COc1ccc(Sc2ccc(C=C3C(=O)NC(=O)NC3=O)o2)cc1`, the “% Inhibition @ 10 uM” value came to 4.74%.

As to `Cc1ccsc1CCNC(=O)c1cc(S(=O)(=O)N2CCCCC2)c[nH]1`, the “% Inhibition @ 10 uM” value was -6.56%.

For `CC(C)c1ccccc1OCC(=O)Nc1ccc(S(=O)(=O)N2CCOCC2)cc1`, the “% Inhibition @ 10 uM” value is given as -1.44%.

Consider `COc1ccc(C2C(C#N)=C(N)Oc3[nH]nc(C)c32)cc1COc1ccccc1Br` (centres unmarked), for which the “% Inhibition @ 10 uM” value was found to be 0.687%.

Take `O=C1NCCN/C1=C\C(=O)c1ccc(F)cc1`: the “% Inhibition @ 10 uM” value is reported as 0.279%.

As to `N#CC1=C(N)Oc2c(c(O)nc3ccccc23)C1c1cncc(-c2ccc(F)cc2)c1` (centres unmarked), the “% Inhibition @ 10 uM” value was found to be 22.7%.

For `C=CCN1C(=O)N/C(=C/c2ccc(-c3cccc(C(F)(F)F)c3)o2)C1=O`, the “% Inhibition @ 10 uM” value amounted to 11.5%.

`O=C1C2CC=C(Cl)CC2C(=O)N1CCC[n+]1cccc2ccccc21` (centres unmarked): the “% Inhibition @ 10 uM” value is reported as 5.3%.

Consider `CCOC(=O)c1c(C)n(C)c2ccc(OCC(O)CN(CC)CC)cc12` (centres unmarked), for which the “% Inhibition @ 10 uM” value was 2.1%.

Regarding `CC(C)NS(=O)(=O)c1ccc(-c2ccc(O)nn2)o1`, the “% Inhibition @ 10 uM” value is given as -3.28%.

In the case of `COC(=O)c1nnn(-c2ccccc2)c1N`, the “% Inhibition @ 10 uM” value is listed as 5.27%.

As to `CCN(CC)Cc1c(O)ccc2c(=O)c(Oc3ccccc3Br)coc12`, the “% Inhibition @ 10 uM” value is 4.86%.

With `COc1ccc(/C=C(\C#N)C(=O)NCc2ccc(F)cc2)c(OC)c1OC`, the “% Inhibition @ 10 uM” value was -11.9%.

As for `Cc1cc(C)c2nc(N3CCC(C(=O)NCCc4c[nH]c5ccccc45)CC3)sc2c1`, the “% Inhibition @ 10 uM” value was -5.19%.

As for `COC(=O)c1cnn2c(C)c(Cc3ccc(C)cc3)c(C)nc12`, the “% Inhibition @ 10 uM” value is recorded as -2.14%.

`O=C(CSc1ccccn1)Nc1ccccc1Br`: the “% Inhibition @ 10 uM” value is listed as -3.9%.

Take `O=C(Cc1ccc(Br)cc1)N(Cc1ccccc1)c1ccccn1`: the “% Inhibition @ 10 uM” value was -5.92%.

As to `Clc1cccc(-c2nnc3sc(COc4ccccc4)nn23)c1`, the “% Inhibition @ 10 uM” value is given as -0.45%.

Turning to `COc1ccc(-c2c(NCc3ccccc3Cl)c(=O)c2=O)cc1`, the “% Inhibition @ 10 uM” value was 0.0281%.

On to `CCCSc1nc(O)c2c3c(sc2n1)COC(C)(C)C3`, for which the “% Inhibition @ 10 uM” value is on record as 7.39%.

As for `CCOC(=O)c1ccc2c(c1)C(=O)N(c1ccc(C)cc1)C2=O`, the “% Inhibition @ 10 uM” value stood at 1.52%.

Regarding `CCOC(=O)c1c(NC(=O)CSc2nc3ccccc3s2)sc2c1CCC2`, the “% Inhibition @ 10 uM” value is listed as 1.52%.

`CCCOP(=O)(CN1CCOCC1)OCCC`: the “% Inhibition @ 10 uM” value amounted to 5.53%.
